From PubChem BioAssay AID1345082 (National Center for Advancing Translational Sciences (NCATS), 2018)
The whole screen tested about 94,000 compounds, of which about 4,000 (4.3%) were called active. This list was built around the results that the source calls inconclusive (neither active nor inactive); the mix of calls is not that of the screen. Calls come from the whole dose curve; as a rule, active = well fitted inhibition curve with a large enough effect; inconclusive = small, poorly fitted or top-dose-only effect; inactive = no such curve, though single readings can be large or run the other way. Potencies of inconclusive entries are doubtful fits and often do not repeat.

Assay: Cytotoxic Profiling in NIH 3T3 Cell Line of Diverse Libraries Using Quantitative High-Throughput Screening; note: nearly all actives have a fitted effect of over 55% in size
Details: NIH 3T3 viability, CellTiter-Glo ATP luminescence, 48-72 h; series mostly up to 96.7 µM
Summary of the method: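 Cytotoxicity is measured as loss of cellular ATP: NIH 3T3 cells (400/well) are exposed to compound for 48 or 72 hr at 37 °C, then CellTiter-Glo luminescence is imaged after 10 min at room temperature.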
Potency is the fitted concentration of half-maximal effect; tags give direction and shape of the fitted curve.

SMILES | Potency
O=C(C1CCCC1)N1CCCCC1c1nc(C2CC2)n[nH]1 (stereo not given) | inactive
CNC(=O)N1CCC(C2CCN(C(=O)CSC)C2)CC1 (stereo not given) | inactive
COc1ccc(-c2noc([C@@H](C)NC(=O)C3CCCCC3)c2C(=O)O)cc1 | inconclusive: 100 µM [inhibitor, partial curve]
O=C(NC1CCCCCCC1)c1nnn2c1COC(c1ccc(F)cc1)C2 (stereo not given) | inconclusive: 44.7 µM [inhibitor, partial curve, poor fit]
Cc1ccc(-c2ccccc2CN2CCN(C(=O)c3ccc(C(F)(F)F)cc3)CC2)cc1Cl | inconclusive: 50.1 µM [inhibitor, partial curve, poor fit]
O=C(O)CCn1ncc2cc(OCC3CCN(c4nccc(C(F)(F)F)n4)CC3)ccc21 | inconclusive: 17.8 µM [inhibitor, full curve, poor fit]
COc1ccc(-c2noc([C@@H]3CCCN3C(=O)c3ccc(Cl)cc3OC)n2)cc1 | inconclusive: 50.1 µM [inhibitor, partial curve, poor fit]
Cc1ccc(C(=O)N2CCCC3(C2)NC(=O)N(Cc2ccccc2)C3=O)cc1 (stereo not given) | inactive
O=C(c1csc(Cc2ccccc2)n1)N1CCC2(CCCNC2)C1 (stereo not given) | inactive
COc1ccc(CN2CCOC[C@H](Oc3ccc(C(F)(F)F)cn3)C2)cc1 | inactive
CN(C(=O)C1(c2ccc(Cl)cc2)CCOCC1)C1CCc2ccccc21 (stereo not given) | inconclusive: 70.8 µM [inhibitor, single point]
Cc1nc(-c2c3n(c(=O)n(CC(=O)Nc4cccc(F)c4)c2=O)CCCCC3)no1 | inactive
CC(C)(C)c1ccc(NC(=O)O[C@@H]2CO[C@H]3[C@@H]2OC[C@@H]3Nc2nccc(-c3cccc(F)c3)n2)cc1 | inconclusive: 56.2 µM [inhibitor, partial curve, poor fit]
N#Cc1cccc(-c2c(C(=O)NCC(F)(F)F)nc3sccn23)c1 | inconclusive: 100 µM [inhibitor, single point]
COc1ccc(C(=O)N[C@@H]2CN(C(=O)Nc3ccc(F)cc3)CCC[C@H]2O)cc1 | active: 100 µM
O=C(CN1CCCc2nc(-c3ccccc3)ncc2C1=O)N1CCOCC1 | inactive
Cc1ccc(SCCN(C)c2cc(C3CC(O)C3)nc(N)n2)cc1 (stereo not given) | inconclusive: 7.94 µM [inhibitor, full curve, poor fit]
Cc1nnc2ccc(N3CCOCC3)nn12 | inactive
COc1cccc(C(=O)N2CCC(n3cc(-c4nc(-c5ccccc5)no4)nn3)CC2)c1 | inconclusive: 28.2 µM [inhibitor, partial curve, poor fit]
Cc1ccc(-c2ncc(C(=O)Nc3cccc(F)c3C)c(-c3ccncc3)n2)cc1 | inactive
O=C(NCC1CCN(c2cc(-c3ccc(F)cc3)[nH]n2)CC1)c1ccc[nH]1 | inconclusive: 50.1 µM [inhibitor, partial curve, poor fit]
Cc1nn(-c2ccccc2)c2c1C(C(C)C)N(C1CCN(C(=O)Nc3ccc(Cl)cc3)CC1)C2=O (stereo not given) | inconclusive: 31.6 µM [inhibitor, partial curve, poor fit]

SMILES | Potency
Cc1nc(-c2ccc(CN3CCCC(CN)C3)cc2)[nH]c(=O)c1C (stereo not given) | inactive
O=C(NCCC1CCN(C(=O)Nc2cc(F)cc(F)c2)CC1)c1cccs1 | inconclusive: 44.7 µM [inhibitor, partial curve, poor fit]
CCOc1ccccc1C(=O)N1CCN(C(=O)c2nnn3c2COC(c2ccccc2)C3)CC1 (stereo not given) | inactive
CC1CCN(C(=O)C[C@@H]2c3nc(NC(=O)c4cccc(F)c4)sc3C[C@@H]3[C@](C)(CO)[C@H](O)CC[C@]32C)CC1 | inconclusive: 50.1 µM [inhibitor, partial curve, poor fit]
C#CCNC(=O)[C@@H]1Cc2cn(Cc3ccncc3)c3cccc(c23)[C@H](CC(C)C)N1 | active: 89.1 µM
N#Cc1ccc(CN2CCN(c3nccc(Cl)n3)C(=O)C2)cc1 | inconclusive: 70.8 µM [inhibitor, partial curve]
CC1(NC(=O)C2CC2)CN(Cc2nc(-c3cccc(N4CCOCC4)c3)cs2)C1 | inactive
CN(C)CC1(O)CCCN(Cc2cccc3ncccc23)C1 (stereo not given) | inactive
COc1ccc(C(=O)NC(C(=O)NCC(C)C)C2CCN(C(=O)C3CC3)CC2)cc1 (stereo not given) | inactive
O=C(O)Cn1ccc2cc(OCCc3cccc(-c4cncnc4)c3)cnc21 | inconclusive: 100 µM [inhibitor, partial curve, poor fit]
CN(C)c1ccc(CN2CCNc3cc(-c4ccccc4)ncc3C2)cc1 | inconclusive: 31.6 µM [inhibitor, partial curve, poor fit]
C=CCNC(=O)N[C@H]1[C@H](O)[C@@H](N2CCC(Cc3ccccc3)CC2)[C@@H]2OC[C@H]1O2 | inconclusive: 100 µM [inhibitor, partial curve]
COc1ccc(CNC(=O)N2CCn3nnc(CCC(=O)NCc4ccccc4)c3C2)cc1 | inactive
Cc1nc(C)n(CCCn2ccnc2-c2cc3n(n2)CCCNC3)n1 | inactive
Cc1ccc(NC(=O)N2C[C@@H](F)C[C@H]2C(=O)N2CCCCC2)cc1F | inactive
O=c1c2nc(-c3ccc(Cl)cc3)ccc2ncn1Cc1ccccn1 | inconclusive: 56.2 µM [inhibitor, partial curve, poor fit]
Cc1cccc(C(=O)N2CCC(Cc3nc(-c4cnccn4)no3)CC2)c1 | inactive
C[C@]1(CO)C2CC[C@@H](O)[C@@H](CC(=O)N3CCC[C@H]3CO)[C@]2(C)CC[C@H]1OC(=O)Nc1cccc(C(F)(F)F)c1 (stereo not given in full) | inconclusive: 56.2 µM [inhibitor, partial curve, poor fit]
O=C(NCC1CC1)c1ccc2oc(-c3ccccn3)nc2c1 | inconclusive: 89.1 µM [inhibitor, partial curve, poor fit]
COc1ccc(CCNC(=O)c2ccc3c(c2)N(C)C2CCCCN2C3=O)cc1OC (stereo not given) | inconclusive: 70.8 µM [inhibitor, single point]
Cc1ccc(N2CCN(C(=O)c3cc(-c4ccccc4O)n[nH]3)CC2=O)cc1 | inconclusive: 50.1 µM [inhibitor, partial curve, poor fit]
O=C1c2cnc(-c3cc(F)cc(F)c3)nc2OCCN1Cc1ccccc1 | inconclusive: 79.4 µM [inhibitor, partial curve]

SMILES | Potency
O=C(NC1CCCc2c1[nH]c1ccc(F)cc21)C1(c2ccccc2)CCOCC1 (stereo not given) | inconclusive: 70.8 µM [inhibitor, single point]
C[C@@H](NC(=O)C1=C[C@@H](NS(=O)(=O)c2cccc(C(F)(F)F)c2)[C@@H](O)[C@H](O)C1)C(N)=O | inactive
Cc1cnc(CC2CCN(C(=O)C3COc4ccccc4O3)CC2)n1Cc1ccc(F)cc1 (stereo not given) | inconclusive: 50.1 µM [inhibitor, partial curve, poor fit]
CNC(=O)c1cc(-c2ccccc2C)cc2c1OCCN2Cc1cccnc1 | inconclusive: 56.2 µM [inhibitor, partial curve, poor fit]
Cc1cccc(-c2cccc(CN3CCC(NC(=O)c4ccncc4)CC3)c2)c1 | active: 31.6 µM
O=C(NCc1c[nH]c2ncccc12)c1cncc(Br)c1 | inactive
COc1ccc(CNC(=O)c2cc3c(s2)CN(C2CC2)C3)cc1OC | inconclusive: 70.8 µM [inhibitor, single point]
COc1ccc(NC(=O)[C@@H]2C[C@@H](c3ccc(F)cc3)N(Cc3ccccc3)C2)cc1OC | inconclusive: 35.5 µM [inhibitor, full curve, poor fit]
CCCCn1c(=O)c(C(=O)NCCc2ccccc2)nc2cccnc21 | inconclusive: 50.1 µM [inhibitor, partial curve, poor fit]
CCC(=O)N1CCN(c2nc3c(s2)CC(C(=O)N2CCN(CC)CC2)CC3)CC1 (stereo not given) | inactive
OCc1cc2n(n1)CCCN(Cc1cnc(SCc3ccccc3)nc1)C2 | inconclusive: 79.4 µM [inhibitor, partial curve, poor fit]
O=C(NC(C(=O)N1CCCCC1)C1CCN(C(=O)c2cccs2)CC1)c1ccc2c(c1)OCO2 (stereo not given) | inconclusive: 70.8 µM [inhibitor, single point]
CC(C)(C)C(=O)NCCNC(=O)c1cccc(-c2ccsc2)c1 | inconclusive: 112 µM [inhibitor, partial curve, poor fit]
CC(C)c1ccc(CC(=O)N2CCCc3ncc(C(=O)NCc4cccc(Cl)c4)cc32)cc1 | inconclusive: 44.7 µM [inhibitor, partial curve, poor fit]
COc1ccc(C(=O)N2CCC(n3cc(-c4nc(-c5ccccc5)no4)nn3)C2)cc1 (stereo not given) | inconclusive: 11.2 µM [inhibitor, partial curve, poor fit]
O=C(NCc1cccc(F)c1)c1c[nH]c2ncccc12 | inconclusive: 50.1 µM [inhibitor, partial curve]
COc1ccc(-c2ccc(C(=O)NCc3ccc(F)cc3F)c(Cl)c2)nn1 | inactive
COc1ccccc1-c1cccc(CN2CCCC(C(=O)NCc3cccc(C(F)(F)F)c3)C2)c1 (stereo not given) | active: 15.8 µM
COc1ccc(OC)c(CN2CC(Oc3ccccc3C(=O)NCc3ccccc3)C2)c1 | inconclusive: 44.7 µM [inhibitor, partial curve, poor fit]
Cc1nc(C(=O)N2CC[C@H](NS(=O)(=O)c3cn(C)cn3)C[C@H]2C(=O)N[C@H](Cc2ccccc2)C(N)=O)cs1 | inactive
CC(C)CCN1CCOc2cc(C(=O)Nc3ccc4cn[nH]c4c3)ccc2C1 | inconclusive: 112 µM [inhibitor, single point]
